Data on 1 molecule can be found in patent publication US20180164324A1 (INSERM INSTITUT NATIONAL DE LA SANT ET DE LA RECHERCHE M …, published 2018).

The target in the experiment is T1, Rho-binding domain of Rhotekin (RBD)-GFP11.
T1 chain: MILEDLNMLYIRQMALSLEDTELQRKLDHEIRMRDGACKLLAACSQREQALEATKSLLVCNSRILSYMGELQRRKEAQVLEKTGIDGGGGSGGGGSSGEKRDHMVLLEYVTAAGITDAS
Put plainly: cell-based or functional assay.

B1: GFP10-RhoB (wild-type RhoB fused to GFP10) (other)
chain: MGDLPDDHYLSTQTILSKDLNIDGGGGSGGGGSSGAAIRKKLVVVGDGACGKTCLLIVFSKDEFPEVYVPTVFENYVADIEVDGKQVELALWDTAGQEDYDRLRPLSYPDTDVILMCFSVDSPDSLENIPEKWVPEVKHFCPNVPIILVANKKDLRSDEHVRTELARMKQEPVRTDDGRAMAVRIQAYDYLECSAKTKEGVREVFETATRAALQKRYGSQNGCINCCKVL
On to B1, for which the “induction factor of fluorescent cells after stimulation with serum” value was 1.6 fold, the “reduction factor of fluorescent cells upon VAV2 downregulation” value was found to be 2.5 fold and the “split-GFP fluorescence after serum stimulation (time-lapse)” value was around 2 fold.
